# Results: the supplement of paper PMC8728848
# The list shows a part of the results.
# B1: Gal 7 (Canis lupus) (protein)
# chain: MAGSSNVPHKTSLPEGIRVGTVMRIRGVVPNKAGRFYVNLLCGEAPGSEAALHFNPRLDESTVVFNTLEQGAWGREERGTGIPFQRGQPFDVLLIATDEGFKAVVGDSEYHHFRYRIPPARVRLLEVGGDLQLESVSVF
# Experiments:
# Assay in all cases: glycan array binding signal (z-score within array); higher = stronger binding
# Conditions in all cases: glycan notation: IUPAC condensed, linker removed
# [1] = target: Fuc(a1-2)[GalNAc(a1-3)]Gal(b1-4)GlcNAc(b1-3)GalNAc
# Procedure, shortened: (§1)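 The binding signal is a Z-score computed within each array and averaged over linkers. Arrays of the same protein sequence at different concentrations or buffers were also averaged together. Data originate from 3228 arrays in the Consortium for Functional Glycomics database, kept only where the protein sequence was available.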
# [2] = target: Fuc(a1-2)[GalNAc(a1-3)]Gal(b1-4)[Fuc(a1-3)]GlcNAc
# Procedure, shortened: as §1
# [3] = target: Fuc(a1-2)[GalNAc(a1-3)]Gal(b1-4)[Fuc(a1-3)]GlcNAc(b1-3)GalNAc
# Procedure, shortened: as §1
# [4] = target: Fuc(a1-2)[GalNAc(a1-4)]Gal(b1-4)GlcNAc
# Procedure, shortened: as §1
# [5] = target: Fuc(a1-2)[GalNAc(b1-3)]Gal
# Procedure, shortened: as §1
# [6] = target: Fuc(a1-3)GlcNAc
# Procedure, shortened: as §1
# [7] = target: Fuc(a1-3)[Gal(b1-4)]Glc6S
# Procedure, shortened: as §1
# [8] = target: Fuc(a1-3)[Gal(b1-4)]GlcNAc
# Procedure, shortened: as §1
# [9] = target: Fuc(a1-3)[Gal(b1-4)]GlcNAc(b1-2)Man(a1-3)[Fuc(a1-3)[Gal(b1-4)]GlcNAc(b1-2)Man(a1-6)]Man(b1-4)GlcNAc(b1-4)GlcNAc
# Procedure, shortened: as §1
# [10] = target: Fuc(a1-3)[Gal(b1-4)]GlcNAc(b1-2)Man(a1-3)[Fuc(a1-3)[Gal(b1-4)]GlcNAc(b1-2)Man(a1-6)]Man(b1-4)GlcNAc(b1-4)[Fuc(a1-6)]GlcNAc
# Procedure, shortened: as §1
# [11] = target: Fuc(a1-3)[Gal(b1-4)]GlcNAc(b1-3)Gal(b1-3)[Fuc(a1-4)]GlcNAc
# Procedure, shortened: as §1
# [12] = target: Fuc(a1-3)[Gal(b1-4)]GlcNAc(b1-3)GalNAc
# Procedure, shortened: as §1
# [13] = target: Fuc(a1-3)[Gal(b1-4)]GlcNAc(b1-4)Gal(b1-4)[Fuc(a1-3)]GlcNAc
# Procedure, shortened: as §1
# [14] = target: Fuc(a1-3)[Gal(b1-4)]GlcNAc(b1-4)Gal(b1-4)[Fuc(a1-3)]GlcNAc(b1-4)Gal(b1-4)[Fuc(a1-3)]GlcNAc
# Procedure, shortened: as §1
# [15] = target: Fuc(a1-3)[Gal(b1-4)]GlcNAc(b1-6)[Gal(b1-3)GlcNAc(b1-3)]Gal(b1-4)Glc
# Procedure, shortened: as §1
# [16] = target: Fuc(a1-3)[Gal(b1-4)]GlcNAc6S
# Procedure, shortened: as §1
# [17] = target: Fuc(a1-3)[Gal3S(b1-4)]GlcNAc
# Procedure, shortened: as §1
# [18] = target: Fuc(a1-3)[Gal3S(b1-4)]GlcNAc6S
# Procedure, shortened: as §1
# [19] = target: Fuc(a1-3)[GalNAc(b1-4)]GlcNAc
# Procedure, shortened: as §1
# [20] = target: Fuc(a1-4)GlcNAc
# Procedure, shortened: as §1
# [21] = target: Fuc(b1-3)GlcNAc
# Procedure, shortened: as §1
# [22] = target: Gal(a1-2)Gal
# Procedure, shortened: as §1
# [23] = target: Gal(a1-3)Gal
# Procedure, shortened: as §1
# [24] = target: Gal(a1-3)Gal(b1-3)GlcNAc
# Procedure, shortened: as §1
# [25] = target: Gal(a1-3)Gal(b1-3)GlcNAc(b1-2)Man(a1-3)[Gal(a1-3)Gal(b1-3)GlcNAc(b1-2)Man(a1-6)]Man(b1-4)GlcNAc(b1-4)GlcNAc
# Procedure, shortened: as §1
# [26] = target: Gal(a1-3)Gal(b1-3)GlcNAc(b1-3)GalNAc
# Procedure, shortened: as §1
# [27] = target: Gal(a1-3)Gal(b1-3)[Fuc(a1-4)]GlcNAc(b1-2)Man(a1-3)[Gal(a1-3)Gal(b1-3)[Fuc(a1-4)]GlcNAc(b1-2)Man(a1-6)]Man(b1-4)GlcNAc(b1-4)GlcNAc
# Procedure, shortened: as §1
# [28] = target: Gal(a1-3)Gal(b1-4)Glc
# Procedure, shortened: as §1
# [29] = target: Gal(a1-3)Gal(b1-4)GlcNAc
# Procedure, shortened: as §1
# [30] = target: Gal(a1-3)Gal(b1-4)GlcNAc(b1-3)GalNAc
# Procedure, shortened: as §1
# [31] = target: Gal(a1-3)Gal(b1-4)[Fuc(a1-3)]GlcNAc
# Procedure, shortened: as §1
# [32] = target: Gal(a1-3)Gal(b1-4)[Fuc(a1-3)]GlcNAc(b1-2)Man(a1-3)[Gal(a1-3)Gal(b1-4)[Fuc(a1-3)]GlcNAc(b1-2)Man(a1-6)]Man(b1-4)GlcNAc(b1-4)GlcNAc
# Procedure, shortened: as §1
# [33] = target: Gal(a1-3)GalNAc
# Procedure, shortened: as §1
# [34] = target: Gal(a1-3)[Gal(a1-4)]Gal(b1-4)GlcNAc
# Procedure, shortened: as §1
# [35] = target: Gal(a1-4)Gal(b1-3)GlcNAc(b1-2)Man(a1-3)[Gal(a1-4)Gal(b1-3)GlcNAc(b1-2)Man(a1-6)]Man(b1-4)GlcNAc(b1-4)GlcNAc
# Procedure, shortened: as §1
# [36] = target: Gal(a1-4)Gal(b1-4)Glc
# Procedure, shortened: as §1
# [37] = target: Gal(a1-4)Gal(b1-4)GlcNAc
# Procedure, shortened: as §1
# [38] = target: Gal(a1-4)Gal(b1-4)GlcNAc(b1-2)Man(a1-3)[Gal(a1-4)Gal(b1-4)GlcNAc(b1-2)Man(a1-6)]Man(b1-4)GlcNAc(b1-4)GlcNAc
# Procedure, shortened: as §1
# [39] = target: Gal(a1-4)Gal(b1-4)GlcNAc(b1-3)Gal(b1-4)Glc
# Procedure, shortened: as §1
# [40] = target: Gal(a1-4)GlcNAc
# Procedure, shortened: as §1
# [41] = target: Gal(a1-6)Glc
# Procedure, shortened: as §1
# [42] = target: Gal(b1-2)Gal
# Procedure, shortened: as §1
# [43] = target: Gal(b1-3)Gal
# Procedure, shortened: as §1
# [44] = target: Gal(b1-3)Gal(b1-4)GlcNAc
# Procedure, shortened: as §1
# [45] = target: Gal(b1-3)Gal(b1-4)GlcNAc(b1-2)Man(a1-3)[Gal(b1-3)Gal(b1-4)GlcNAc(b1-2)Man(a1-6)]Man(b1-4)GlcNAc(b1-4)GlcNAc
# Procedure, shortened: as §1
# [46] = target: Gal(b1-3)GalNAc
# Procedure, shortened: as §1
# [47] = target: Gal(b1-3)GalNAc(a1-3)[Fuc(a1-2)]Gal(b1-4)Glc
# Procedure, shortened: as §1
# [48] = target: Gal(b1-3)GalNAc(a1-3)[Fuc(a1-2)]Gal(b1-4)GlcNAc
# Procedure, shortened: as §1
# [49] = target: Gal(b1-3)GalNAc(b1-3)Gal(a1-4)Gal(b1-4)Glc
# Procedure, shortened: as §1
# [50] = target: Gal(b1-3)GalNAc(b1-4)Gal(b1-4)Glc
# Procedure, shortened: as §1
# [51] = target: Gal(b1-3)GalNAc(b1-4)[Neu5Ac(a2-3)]Gal(b1-4)Glc
# Procedure, shortened: as §1
# [52] = target: Gal(b1-3)GlcNAc
# Procedure, shortened: as §1
# [53] = target: Gal(b1-3)GlcNAc(a1-6)Gal(b1-4)GlcNAc
# Procedure, shortened: as §1
# [54] = target: Gal(b1-3)GlcNAc(b1-2)Man(a1-3)[Gal(b1-3)GlcNAc(b1-2)Man(a1-6)]Man(b1-4)GlcNAc(b1-4)GlcNAc
# Procedure, shortened: as §1
# [55] = target: Gal(b1-3)GlcNAc(b1-2)Man(a1-3)[Gal(b1-3)GlcNAc(b1-2)Man(a1-6)]Man(b1-4)GlcNAc(b1-4)[Fuc(a1-6)]GlcNAc
# Procedure, shortened: as §1
# [56] = target: Gal(b1-3)GlcNAc(b1-2)[Gal(b1-3)GlcNAc(b1-6)]Man(a1-6)[Gal(b1-3)GlcNAc(b1-2)Man(a1-3)]Man(b1-4)GlcNAc(b1-4)GlcNAc
# Procedure, shortened: as §1
# [57] = target: Gal(b1-3)GlcNAc(b1-3)Gal(b1-3)GlcNAc
# Procedure, shortened: as §1
# [58] = target: Gal(b1-3)GlcNAc(b1-3)Gal(b1-4)Glc
# Procedure, shortened: as §1
# [59] = target: Gal(b1-3)GlcNAc(b1-3)Gal(b1-4)GlcNAc
# Procedure, shortened: as §1
# [60] = target: Gal(b1-3)GlcNAc(b1-3)Gal(b1-4)GlcNAc(b1-6)[Gal(b1-3)GlcNAc(b1-3)]Gal(b1-4)Glc
# Procedure, shortened: as §1
binder,measurement,setting,value
B1,glycan array binding signal (z-score),[1],-0.183
same,glycan array binding signal (z-score),[2],-0.209
same,glycan array binding signal (z-score),[3],-0.164
same,glycan array binding signal (z-score),[4],-0.216
same,glycan array binding signal (z-score),[5],-0.219
same,glycan array binding signal (z-score),[6],-0.217
same,glycan array binding signal (z-score),[7],-0.208
same,glycan array binding signal (z-score),[8],-0.204
same,glycan array binding signal (z-score),[9],-0.211
same,glycan array binding signal (z-score),[10],-0.18
same,glycan array binding signal (z-score),[11],-0.217
same,glycan array binding signal (z-score),[12],-0.21
same,glycan array binding signal (z-score),[13],-0.212
same,glycan array binding signal (z-score),[14],-0.191
same,glycan array binding signal (z-score),[15],-0.163
same,glycan array binding signal (z-score),[16],-0.197
same,glycan array binding signal (z-score),[17],-0.205
same,glycan array binding signal (z-score),[18],-0.209
same,glycan array binding signal (z-score),[19],-0.213
same,glycan array binding signal (z-score),[20],-0.208
same,glycan array binding signal (z-score),[21],-0.22
same,glycan array binding signal (z-score),[22],-0.207
same,glycan array binding signal (z-score),[23],-0.202
same,glycan array binding signal (z-score),[24],-0.187
same,glycan array binding signal (z-score),[25],-0.19
same,glycan array binding signal (z-score),[26],-0.166
same,glycan array binding signal (z-score),[27],-0.196
same,glycan array binding signal (z-score),[28],-0.201
same,glycan array binding signal (z-score),[29],-0.144
same,glycan array binding signal (z-score),[30],-0.204
same,glycan array binding signal (z-score),[31],-0.2
same,glycan array binding signal (z-score),[32],-0.194
same,glycan array binding signal (z-score),[33],-0.213
same,glycan array binding signal (z-score),[34],-0.202
same,glycan array binding signal (z-score),[35],-0.208
same,glycan array binding signal (z-score),[36],-0.19
same,glycan array binding signal (z-score),[37],-0.212
same,glycan array binding signal (z-score),[38],-0.147
same,glycan array binding signal (z-score),[39],1.5
same,glycan array binding signal (z-score),[40],-0.211
same,glycan array binding signal (z-score),[41],-0.204
same,glycan array binding signal (z-score),[42],-0.214
same,glycan array binding signal (z-score),[43],-0.205
same,glycan array binding signal (z-score),[44],-0.115
same,glycan array binding signal (z-score),[45],0.325
same,glycan array binding signal (z-score),[46],-0.209
same,glycan array binding signal (z-score),[47],0.252
same,glycan array binding signal (z-score),[48],0.753
same,glycan array binding signal (z-score),[49],-0.204
same,glycan array binding signal (z-score),[50],-0.215
same,glycan array binding signal (z-score),[51],-0.152
same,glycan array binding signal (z-score),[52],-0.165
same,glycan array binding signal (z-score),[53],-0.199
same,glycan array binding signal (z-score),[54],-0.08
same,glycan array binding signal (z-score),[55],-0.145
same,glycan array binding signal (z-score),[56],-0.061
same,glycan array binding signal (z-score),[57],0.463
same,glycan array binding signal (z-score),[58],0.044
same,glycan array binding signal (z-score),[59],0.155
same,glycan array binding signal (z-score),[60],1.49
